In the RNAGym collection of RNA variant scans (doi:10.1093/nar/gkz1192):
The source gives no read counts; variants with many changes may rest on few reads.

B1: CPEB3 Ribozyme (parent)
chain: UAACAGGGGGCCACAGCAGAAGCGUUCACGUCGCAGCCCCUGUCAGAUUCUGGUGAAUCUGCGAAUUCUGCUGUAUAUCUC

Variants of: B1
Experiment: self-cleavage, relative activity (ratio to wild type); higher = more cleavage; in vitro, sequencing
In short: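 CPEB3 self-cleaving ribozyme mutant libraries were made by rounds of error-prone PCR, barcoded, and transcribed in vitro with T7 RNA polymerase for 5 hours at 37°C. Cleavage occurred during transcription and a 15 min DNase I step before EDTA stop. RNAs were reverse transcribed with template switching and Illumina-sequenced, with DNA sequencing mapping barcodes to variants. Relative activity is the variant's cleaved/total read fraction divided by wild type's (minimum 5 reads), averaged across three batches.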
With A45G U69A U76A U80A the self-cleavage was 0.62.
For G42A A47G U51C U78C, the self-cleavage was 0.21.
U43C A47G U78C gave a self-cleavage of 0.33.
Work on A45G U48C A57G yielded a self-cleavage of 0.66.
With U41C U51C U58C A64G U78C the self-cleavage was 0.23.
For C44U A45U U51C U60C, the self-cleavage was 0.14.
With U41C U51C G53A U78C the self-cleavage was 1.07.
Variant A45U A56U A57G U69A has a self-cleavage of 0.07.
Variant U43C U54A U67C has a self-cleavage of 0.18.
A45G U48C A65G U72C showed a self-cleavage of 0.13.
U41C A56U U67C showed a self-cleavage of 0.32.
With U41C G46A U48G the self-cleavage was 0.26.
For U41G A65G U66C, the self-cleavage was 0.11.
Variant C44U G63A A75G has a self-cleavage of 0.08.
For A45G G61C A64U U72A, the self-cleavage was 0.18.
U43C C50G U60G U69C gave a self-cleavage of 0.14.
Work on U41A U58C A65C G70C yielded a self-cleavage of 0.09.
Work on U43C U51A G55A yielded a self-cleavage of 0.64.
Work on U43C U48C G53A yielded a self-cleavage of 0.33.
In the case of U41C U49C U51G, the self-cleavage is reported as 0.64.
U41G U49C U78C showed a self-cleavage of 0.05.
U41C A47G U51C showed a self-cleavage of 0.7.
Variant U43G U60C U67C has a self-cleavage of 0.2.
With U41A U69C U80A the self-cleavage was 0.19.
U43C G55U U60A gave a self-cleavage of 0.09.
In the case of U43A U66A A75G, the self-cleavage is reported as 0.54.
Variant C44U U72A U80C has a self-cleavage of 0.65.
In the case of U43A A47G U48A A56G U58C U80G, the self-cleavage is reported as 0.72.
U41C A64G U72A gave a self-cleavage of 0.62.
U41A U43G U74C gave a self-cleavage of 0.31.
Work on A45G U60C U74C yielded a self-cleavage of 1.21.
With U41G U51C C68U U72G U78C the self-cleavage was 0.14.
U41C A75G U80A gave a self-cleavage of 1.14.
U41C A75G U80C gave a self-cleavage of 0.85.
In the case of G42A C44U A47G, the self-cleavage is reported as 0.16.
U43C U54C A56U showed a self-cleavage of 0.34.
C44U U69C U72A U74C gave a self-cleavage of 0.13.
With U41A U54C G73U the self-cleavage was 0.68.
Work on U41A C71A U74C yielded a self-cleavage of 0.12.
With A45C U69G U74A U80A the self-cleavage was 0.23.
U43C A57G U69C showed a self-cleavage of 0.21.
With U43A U49C U76C the self-cleavage was 0.44.
U41C A57U U66C showed a self-cleavage of 0.23.
Work on A45G U78C C81U yielded a self-cleavage of 0.89.
In the case of U41C U48G U69A, the self-cleavage is reported as 0.15.
In the case of A45G A64G A65G U69G, the self-cleavage is reported as 0.32.
With A45G U48C U60C the self-cleavage was 0.57.
With U43C U48C G63U U69A the self-cleavage was 0.11.
U43C U60A U69C gave a self-cleavage of 0.31.
Variant U41C U60G A75U has a self-cleavage of 0.44.
U41C U58C U74C gave a self-cleavage of 1.04.
A45C U51C A56U A64U gave a self-cleavage of 0.17.
U41C A56G U67C showed a self-cleavage of 0.19.
With U41C A47G A57U the self-cleavage was 0.43.
U41C A47G A57G gave a self-cleavage of 0.88.
With U41C U60C A75G the self-cleavage was 0.39.
A45C A57G U67C gave a self-cleavage of 0.11.
In the case of U43C A56U U60A U74C A75U, the self-cleavage is reported as 0.13.
Work on A45U A56G A75G yielded a self-cleavage of 0.27.
U43A U48C A57U gave a self-cleavage of 1.09.
In the case of U41A U43A U58C U72C, the self-cleavage is reported as 0.15.
U41C U60G U80C gave a self-cleavage of 0.58.
C44U A65G U80C showed a self-cleavage of 0.19.
In the case of A45G U60A U74A, the self-cleavage is reported as 1.22.
In the case of U41G A45U A57G U67C, the self-cleavage is reported as 0.21.
For U41C A45U U67C U69A, the self-cleavage was 0.2.
In the case of U41C A47U U48C, the self-cleavage is reported as 0.08.
Variant U41C U49C A57U U78C has a self-cleavage of 0.52.
Variant A45C G52U A64U has a self-cleavage of 0.14.
A45G A56C C68A showed a self-cleavage of 0.12.
With C44U U54A A56U U69C U72C U76C the self-cleavage was 0.13.
Variant U43C A45U A65G has a self-cleavage of 0.14.
Work on U43A U48C U54C A77G yielded a self-cleavage of 0.56.
Work on U41C U43C U78C yielded a self-cleavage of 0.41.
Variant U41C U67A U72C has a self-cleavage of 0.58.
With U43C A47C A56G U69A A77G the self-cleavage was 0.09.
U43A U60A A65U U74C gave a self-cleavage of 0.14.
Work on U41C U49C U74C yielded a self-cleavage of 0.85.
Work on U43G A57G U58C A75G yielded a self-cleavage of 0.11.
Work on A45G C59A U72C yielded a self-cleavage of 0.26.
Variant U41A U72C U74C has a self-cleavage of 0.63.
With U43C A57G A64G the self-cleavage was 0.33.
Variant U41C U54C U60C has a self-cleavage of 0.54.
Variant U41C U58C U69C has a self-cleavage of 0.31.
U43A A64U U67G A75U gave a self-cleavage of 0.16.
Work on U41C U60C U78C yielded a self-cleavage of 0.35.
With U43C U49C A57G U72G the self-cleavage was 0.11.
U41C U51A U69C gave a self-cleavage of 0.73.
C44A A45G U51C showed a self-cleavage of 0.35.
Work on A45G U51C U60C A65G U67C yielded a self-cleavage of 0.07.
Work on U43C U48C U60C yielded a self-cleavage of 0.11.
In the case of U43C A65U U69C A77U, the self-cleavage is reported as 0.09.
For U43C A45G U49A U60A G63A, the self-cleavage was 0.11.
A45C U48A U80C showed a self-cleavage of 0.23.
With A45C U66A U72C the self-cleavage was 0.18.
In the case of U43C U58C U60G U72C, the self-cleavage is reported as 0.15.
In the case of U41A G55A U66C, the self-cleavage is reported as 0.08.
Variant U41C A56G G61U U69C A75U has a self-cleavage of 0.38.
U43A U49A A57U U58C gave a self-cleavage of 0.19.
In the case of U43C U58C A64U, the self-cleavage is reported as 0.39.
Variant U41A U49C A65G has a self-cleavage of 0.09.
With U43C A45G A47G the self-cleavage was 0.27.
With U41A U58C U69C the self-cleavage was 0.27.
Variant U41A U43C U78C has a self-cleavage of 0.2.
Work on U41C A57G U66G yielded a self-cleavage of 0.3.
In the case of U43C U60C U72C, the self-cleavage is reported as 0.09.
A45G A64U A65G U67C gave a self-cleavage of 0.16.
With A45G A47G A65G U67C the self-cleavage was 0.1.
U43A U51C U54C A56G gave a self-cleavage of 0.84.
With A45C A77U U78C the self-cleavage was 0.31.
U41C A47G U66C gave a self-cleavage of 0.46.
In the case of U43A U48C U60A, the self-cleavage is reported as 0.19.
With G42U A47G A64U the self-cleavage was 0.13.
Work on C44A A45U U69A yielded a self-cleavage of 0.17.
U43A A45G U48C U51A gave a self-cleavage of 0.25.
U41C U48A U80C gave a self-cleavage of 0.61.
In the case of G42U U69A U80A, the self-cleavage is reported as 0.23.
Variant U41A G61C U80C has a self-cleavage of 0.11.
Variant G42U U66A U78C has a self-cleavage of 0.29.
Variant A45U A56G U78C U80A has a self-cleavage of 0.29.
With A45G U49C U78C the self-cleavage was 0.19.
U43C A65G U72C gave a self-cleavage of 0.32.
With U43C G53U U54C the self-cleavage was 1.03.
Variant A45G U48C U49C A56G A57G has a self-cleavage of 0.32.
Work on U41A U54A A64G U66C yielded a self-cleavage of 0.08.
In the case of U41C U49C A64U U66C U67A U74C A75U, the self-cleavage is reported as 0.13.
In the case of U43A U54A U69C, the self-cleavage is reported as 0.77.
U41C U43C A47G U69A U78C gave a self-cleavage of 0.13.
A45U A56G U80C gave a self-cleavage of 0.68.
A45U A56G C62U U72G C79G gave a self-cleavage of 0.1.
With U43C U69C A75U the self-cleavage was 0.13.
With U43C C62U U69A the self-cleavage was 0.13.
U41C A47G C79A U80C showed a self-cleavage of 1.29.
Variant U43A A45G U66A has a self-cleavage of 0.12.
U43C A56G U58G U72C gave a self-cleavage of 0.1.
Work on U41C A47G U48C U54C yielded a self-cleavage of 0.16.
For C44A A45G G55A U74C, the self-cleavage was 0.18.
With A45G A47C U76A the self-cleavage was 0.17.
U41A U48C A56G U60A showed a self-cleavage of 0.16.
With U41C U43A U48A U60C G61U U69C the self-cleavage was 0.11.
For U41C A64G U76C U78A, the self-cleavage was 1.07.
In the case of G42A G63U U72A, the self-cleavage is reported as 0.23.
With U41A U51C U66G the self-cleavage was 0.23.
In the case of U41C A47U U69G U72C, the self-cleavage is reported as 0.53.
Work on U41C C50U U78A yielded a self-cleavage of 1.08.
In the case of U41A U43G U58G, the self-cleavage is reported as 0.26.
With U43C A45U U78C C81U the self-cleavage was 0.2.
A45G U67A U72A gave a self-cleavage of 0.23.
Work on C44U U51C U58C U74C yielded a self-cleavage of 0.06.
U41A U49A U51A G52C U69C U80C gave a self-cleavage of 0.17.
Work on U41G U43C G55A U74A yielded a self-cleavage of 0.3.
In the case of U43C U54A U78C, the self-cleavage is reported as 0.78.
In the case of U43C U66A U67C A75U, the self-cleavage is reported as 0.15.
U41G C59A A65G showed a self-cleavage of 0.13.
Work on U41A U43C G53A U58C U72C A77C C81U yielded a self-cleavage of 0.12.
Work on U41C C50A A64G yielded a self-cleavage of 0.61.
Work on A45G U60A A64U yielded a self-cleavage of 0.19.
With U43A A45G U49A the self-cleavage was 0.21.
In the case of A45G A56G U66G, the self-cleavage is reported as 0.38.
U41C A45G U49C gave a self-cleavage of 0.14.
For A45C U49C A75G, the self-cleavage was 0.1.
Work on A45G A56G A75U yielded a self-cleavage of 0.83.
U41C A64G U74A A75G gave a self-cleavage of 0.96.
U41C A45G U66C gave a self-cleavage of 0.49.
Variant U43C U51C A64G A77U has a self-cleavage of 0.3.
C44U A45U U67G gave a self-cleavage of 0.1.
U41A U51A U69A gave a self-cleavage of 0.1.
